Measurements as given in PubChem BioAssay AID463173 (ICCB-Longwood Screening Facility, Harvard Medical School, 2010).
The whole screen tested about 52,000 compounds, of which about 1,700 (3.3%) were called active. No stated cut-off is given here; in the data, active means survival mostly below about 52% (no sharp cut-off); inactive means mostly above about 56%. This is one part of the list.

test system: Wild type; experiment: S. aureus survival, RN4220 and DeltatarO strains – OD600, teichoic acid synthesis inhibitors, primary screen (AID 463173); details: S. aureus RN4220 wild type/DeltatarO growth, OD600, 18 h, active compounds read low, screened at 18.75 µg/mL (by protocol)

Row | SMILES | survival
1 | CCCc1nn2c(=O)cc(COC(=O)c3cccc(NC(=O)CCc4ccccc4)c3)nc2s1 | inactive: 129%
2 | NCCCCCc1nnc(SCc2ccc(F)cc2)o1 | inactive: 68%
3 | CCOc1ccc(CNC(=O)C2CCN(S(=O)(=O)N3CCCCC3)CC2)cc1 | inactive: 71%
4 | CCCCSc1nnc2n(-c3cccc(C)c3)c(=O)c3c4c(sc3n12)CCCC4 | active: -1%
5 | CC(=O)Nc1nonc1-c1nnc(SCc2ccc(F)cc2)n1C | inactive: 83%
6 | COc1ccc(C(C#N)N2N=C(C)CC2c2ccccc2)cc1OC (stereo not given) | inactive: 101%
7 | Cc1cccc(OCc2nc(C#N)c(NCc3ccccc3Cl)o2)c1 | inactive: 23%
8 | CCOC(=O)C1CCN(C(=O)CSc2n[nH]c(-c3ccccc3)n2)CC1 | inactive: 99%
9 | Cc1ccc2nc(COc3ccc(NC(=O)COc4ccccc4F)cc3)cc(=O)n2c1 | inactive: 128%
10 | COc1ccc(NC(=O)CSc2nc3ccccc3[nH]2)cc1 | inactive: 71%
11 | COc1ccc(CC(=O)OC2CCCN(C)C2)cc1 (stereo not given) | inactive: 100%
12 | Fc1ccccc1Oc1ncnc2c1oc1ccccc12 | inactive: 32%
13 | Clc1ccc(-c2csc(=Nc3ccccc3)n2Cc2ccc3c(c2)OCO3)cc1 | inactive: 103%
14 | CCCCC(CC)CNC(=O)CCCc1nnc2n(CCC)c(=O)c3sccc3n12 (stereo not given) | inactive: 68%
15 | Cc1ccc(NC(=O)CSCn2nnc3c(=O)[nH]c(Cc4ccc(F)cc4)nc32)c(C)c1 | inactive: 103%
16 | Cc1ccc(C)c(N2CCN(C(=O)Cn3c(=O)c4cccn4c4ccc(F)cc43)CC2)c1 | inactive: 82%
17 | COc1ccc(-c2cc3nc(C)c(CCC(=O)N4CCN(c5ccccc5)CC4)c(C)n3n2)c(OC)c1 | inactive: 72%
18 | Cc1c(CC(=O)NCc2ccccc2)c(=O)oc2c(C)c(O)ccc12 | inactive: 86%
19 | Cc1cc(C)c2nc(NC(=O)c3ccc(S(=O)(=O)N4CCCC4)cc3)sc2c1 | inactive: 99%
20 | CC(CC1C(C#N)=C(N)SC(N)=C1C#N)c1ccccc1 (stereo not given) | inactive: 101%
21 | COc1cc2c(=O)c(C(=O)c3ccc(C)c(C)c3)cn(Cc3ccccc3)c2cc1OC | inactive: 86%
22 | Cc1cccc(N2CCN(C(=O)c3ccc4c(c3)N(Cc3ccccc3F)C(=O)c3ccccc3S4=O)CC2C)c1 (stereo not given) | inactive: 93%
23 | CCOC(=O)/C(C#N)=C\c1ccc(Br)s1 | inactive: 104%

Row | SMILES | survival
24 | CCOc1cc(C2C(C(=O)OC)=C(C)NC3=C2C(=O)c2ccccc23)c(Br)cc1OC (stereo not given) | inactive: 75%
25 | CCOCCCNC(=O)Cn1nc(C)n2c(cc3cc(C)ccc32)c1=O | inactive: 82%
26 | CCCCN(CCCNC(=O)CN1N=C(c2ccccc2)CCC1=O)c1ccccc1 | inactive: 72%
27 | O=C(COc1ccccc1Cl)Nc1nc2c(s1)CCCC2 | inactive: 53%
28 | Cc1cccc(NC(=O)C2CCCN(S(=O)(=O)c3cccc4nonc34)C2)c1C (stereo not given) | inactive: 136%
29 | CCc1cc(C(=O)O)c(NC(=O)c2ccccc2)s1 | inactive: 87%
30 | CCN1CCC(N(Cc2ccc3c(c2)OCO3)C(=O)Nc2cc(Cl)ccc2C(=O)OC)CC1 | inactive: 131%
31 | CCCOC(=O)c1c(C)oc2c1cc(NS(=O)(=O)c1ccc(OCC)cc1)c1ccccc12 | inactive: 37%
32 | COc1cc2c(cc1NC(=O)COc1cc(C)ccc1C)oc1ccccc12 | inactive: 88%
33 | Cc1cc(C(=O)O)c2c(=O)n(C)c(=O)n(C)c2n1 | inactive: 81%
34 | COc1ccc(-c2cn3c(n2)sc2cc(C(=O)NC4CCCc5ccccc54)ccc23)cc1 (stereo not given) | inactive: 78%
35 | Cc1cc2oc(=O)c(CC(=O)NCCc3ccccc3)c(C)c2c2occ(C(C)(C)C)c12 | inactive: 91%
36 | CC(=Nc1ccc(C)cc1)c1ccc(O)cc1O | inactive: 95%
37 | Cc1cccc(N2CCN(C(=O)c3cn(C4CCCCC4)c(=O)c4c3c3ccccc3n4C)CC2)c1C | inactive: 109%
38 | CCN(C(=O)CCc1nc(-c2ccc(C)cc2)no1)c1cc(C)ccc1C | active: 0%
39 | CCCCN(C)CCCNC(=O)c1ccc2nc(N3CCCCC3)sc2c1 | inactive: 88%
40 | Cc1cccc(OCCSc2nc3ccccc3n2CC(=O)N2CCCCC2)c1C | inactive: 51%
41 | CCN(Cc1ccccc1)Cc1c(O)ccc2c(=O)c(-c3ccccc3OC)c(C(F)(F)F)oc12 | inactive: 87%
42 | CC(=O)Nc1nonc1-c1nnc(SCC(=O)Nc2ccc(F)cc2F)n1-c1ccccc1 | inactive: 22%
43 | Cc1c(C)n(Cc2ccccc2)c2ccc(C(=O)NC(C)c3ccccc3)cc12 (stereo not given) | inactive: 83%
44 | Cc1ccc(Cn2c(CNS(=O)(=O)c3c(C)cc(C)cc3C)nc3cccnc32)cc1 | inactive: 124%
45 | CCOC(=O)c1ccc(N2CCN(c3cc(Cl)ccc3C)CC2)c(NC(=O)Nc2cccc(OC)c2)c1 | inactive: 60%
